Reference: the supplement of paper PMC4723716
± gives the uncertainty stated by the source. Over roughly 9,900 compounds, “viability index relative to DMSO control” has its median near 1; the lowest 2% begin near 0.85. The list shows a part of the results.

Each molecule was assayed on Plasmodium falciparum NF54 stage V gametocytes (assay: viability index relative to DMSO control (fraction); higher = less gametocyte killing). Conditions: 2.5 µM, library set: Broad Institute DOS, incubation time: 72 h.
Method in brief: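 In 1,536-well plates, 10 µl of serum-free medium holding P. falciparum NF54 stage V gametocytes (0.75% gametocytemia, 1.25% hematocrit) received compound at 2.5 µM for 72 hr at 37°C in low oxygen. After one to two hours with 3 µl of 2.5 µM MitoTracker Red CMXRos containing 0.13% saponin, red particles of 20–70 µm2 were counted in a single field per well. Viability index is reported as the particle count over the plate mean of wells treated with solvent only.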
`NCC[C@H]1CC[C@@H](NC(=O)Cc2ccncc2)[C@@H](CO)O1` gave a viability index of 1.1 ± 0.021.
For `O=C(Nc1ccc(F)cc1)N1CC(=O)N2[C@@H](CO)[C@@H](c3ccc(C4=CCCC4)cc3)[C@@H]2C1`, the viability index was 1.02 ± 0.017.
`CN1C(=O)c2cc(NC(=O)Nc3ccc(Cl)cc3)ccc2OC[C@H]2O[C@@H](CC(=O)NCCN3CCCCC3)CC[C@H]21` gave a viability index of 1.01 ± 0.025.
Work on `CO[C@H]1CN(C)C(=O)c2cccc(C#N)c2OCC[C@@H]2CC[C@@H](OC)[C@@H](CN(C)C(=O)[C@@H]1C)O2` yielded a viability index of 1.03 ± 0.03.
Work on `CC(C)NC(=O)N1[C@H](CO)[C@H](c2ccccc2-c2ccc(F)cc2)[C@@H]1C#N` yielded a viability index of 1.15 ± 0.12.
Work on `O=C(Cc1cccnc1)N1CC(=O)N2[C@H](C1)[C@H](c1ccc(C3=CCCCC3)cc1)[C@@H]2CO` yielded a viability index of 1.129 ± 0.0029.
In the case of `O=C(c1cccc(F)c1)N1CC2(C1)[C@@H](c1ccccc1)[C@@H](CO)N2Cc1ccccn1`, the viability index is reported as 1.05 ± 0.048.
`C[C@H](O)C#Cc1ccc([C@H]2[C@H](CO)N3CCCCN(C(=O)c4ccc5c(c4)OCO5)C[C@@H]23)cc1` gave a viability index of 0.976 ± 0.016.
Molecule `COCC(=O)N1[C@H](CO)[C@H]2c3ccccc3NC[C@H]21` has a viability index of 1.03 ± 0.028.
`C/C=C/c1ccc([C@@H]2[C@@H](CO)N(C(=O)NC(C)C)C23CN(Cc2ccc(OC)cc2)C3)cc1` showed a viability index of 0.993 ± 0.09.
`COCC(=O)Nc1ccc2c(c1)OC[C@@H](C)N(C)C[C@@H](C)[C@H](OC)CN(C)C2=O` showed a viability index of 1.06 ± 0.007.
`CO[C@@H](CN(C)C(=O)C1CCOCC1)[C@H](C)CN([C@H](C)CO)S(=O)(=O)c1ccccc1` showed a viability index of 0.985 ± 0.1.
`O=C(C[C@@H]1CC[C@H]2[C@@H](COC[C@H](O)CN2C(=O)Nc2ccccc2)O1)NCc1ccccc1F` was tested, and the viability index was 1.01 ± 0.094.
`O=C(c1ccncc1)N1C[C@@H]2[C@H](c3ccccc31)[C@@H](CO)N2C(=O)CN1CCOCC1` gave a viability index of 1.024 ± 0.0054.
`C[C@@H]1CN([C@@H](C)CO)C(=O)CCCn2nncc2CO[C@H]1CN(C)C(=O)Nc1ccnc(N2CCOCC2)c1` was tested, and the viability index was 1.03 ± 0.093.
In the case of `COc1ccc2c3c([nH]c2c1)[C@H](CO)N(C[C@]31CN(C1)C(=O)c1ccccn1)C(=O)Nc1ccc(F)cc1`, the viability index is reported as 0.971 ± 0.052.
For `N#Cc1ccc(-c2ccc([C@H]3[C@@H]4CN(C(=O)C5CCCCC5)C[C@H]3N4)cc2)cc1`, the viability index was 0.943 ± 0.11.
In the case of `CO[C@@H]1CC[C@@H]2CCOc3c(C#N)cccc3C(=O)N(C)C[C@@H](c3ccccc3)CC(=O)N(C)C[C@H]1O2`, the viability index is reported as 0.95 ± 0.044.
`COc1cccc(NC(=O)N2C[C@@H](O)COC[C@@H]3O[C@@H](CC(=O)N(C)C)CC[C@H]32)c1` showed a viability index of 1.02 ± 0.054.
`O=C(c1ccccc1F)N1C[C@H]2[C@@H](c3ccccc31)[C@H](CO)N2Cc1ccc2c(c1)OCO2` was tested, and the viability index was 1.04 ± 0.091.
With `CO[C@H]1CC[C@H]2CCOc3ccc(C#N)cc3C(=O)N(C)C[C@@H](c3ccccc3)CC(=O)N(C)C[C@@H]1O2` the viability index was 1.03 ± 0.024.
`CC(C)C[C@@H]1COCc2cn(nn2)CCCC(=O)N1` showed a viability index of 1.01 ± 0.091.
`C/C=C/c1ccccc1[C@@H]1[C@@H](CO)N(C(=O)NC2CCCCC2)[C@H]1C#N` showed a viability index of 0.981 ± 0.017.
Molecule `COc1cccc(S(=O)(=O)Nc2ccc3c(c2)C(=O)N(C)[C@H]2CC[C@H](CC(=O)NCC4CCCCC4)O[C@@H]2CO3)c1` has a viability index of 1.014 ± 0.0095.
Molecule `N#C[C@H]1[C@H](c2ccc(-c3cccc(F)c3)cc2)[C@@H](CO)N1C(=O)CN1CCOCC1` has a viability index of 1.08 ± 0.09.
Work on `CCCNC(=O)c1cc2c(c(-c3cccc(-c4cc5ccccc5o4)c3)n1)[C@H](CCO)N(C(=O)NC(C)C)C2` yielded a viability index of 0.889 ± 0.029.
`O=C(C1CCCCC1)N1[C@@H](CO)[C@@H]2c3ccccc3NC[C@@H]21` was tested, and the viability index was 0.99 ± 0.051.
Work on `Cc1noc(C)c1S(=O)(=O)Nc1ccc2c(c1)C(=O)N([C@H](C)CO)C[C@H](C)[C@H](CN(C)Cc1ccc(C(=O)O)cc1)OCCCC[C@H](C)O2` yielded a viability index of 1.11 ± 0.058.
`Cc1ccccc1-c1ccc([C@H]2[C@H]3CNC[C@@H]2N3Cc2ccc3c(c2)OCO3)cc1` gave a viability index of 1.09 ± 0.1.
Molecule `C[C@@H]1CN([C@@H](C)CO)C(=O)c2cc(NS(C)(=O)=O)ccc2O[C@@H](C)CCCCO[C@@H]1CN(C)CC1CCCCC1` has a viability index of 1.14 ± 0.18.
In the case of `C/C=C/c1ccc([C@H]2[C@H](CO)N3C(=O)CN(C(=O)NC4CCCCC4)C[C@@H]23)cc1`, the viability index is reported as 1 ± 0.04.
With `C[C@@H]1CN([C@H](C)CO)C(=O)c2cccc(NC(=O)c3nc4ccccc4s3)c2O[C@H]1CN(C)C(=O)Nc1ccc2c(c1)OCO2` the viability index was 0.9047 ± 0.0069.
`COc1ccc2c3c([C@@H](CO)N(C)C[C@]33CCN(CC3)C(=O)c3cccnc3)n(C)c2c1` gave a viability index of 1.06 ± 0.05.
In the case of `CO[C@H]1CC[C@@H]2CCOc3ccc(C#N)cc3C(=O)N(C)C[C@H](c3ccccc3)CC(=O)N(C)C[C@H]1O2`, the viability index is reported as 0.999 ± 0.06.
Molecule `CO[C@H](CN(C)S(=O)(=O)c1ccc(C)cc1)[C@H](C)CN([C@@H](C)CO)S(=O)(=O)c1cccc(Cl)c1` has a viability index of 0.988 ± 0.04.
In the case of `O=C(C[C@H]1CC[C@H]2[C@@H](COC[C@H](O)CN2Cc2ccc(C(F)(F)F)cc2)O1)N1CCc2ccccc2C1`, the viability index is reported as 1.08 ± 0.08.
